Read counts are not given, so values of variants with three or more changes are uncertain.
B1: LINE1-mini (parent)
chain: GGCAGAGCUCAACACAGCGUGGCAAAGUGGCUGUGGCUAGACUGCC

Variants of: B1
Experiment: self-cleavage, relative activity (ratio to wild type); higher = more cleavage; in vitro, sequencing; the parent is a self-cleaving ribozyme

Variant | self-cleavage
GUCAGAGCUCAACACAAAGCGGCAACGUGGCUGCGGCUAGACUGCC | 0.01
GUCAGAGCUCAACACAACGUGGAAAAGUGGCUGUGGCUAGACUGCU | 0.05
GUCAGAGCUCAACACAACUUGGCAAAGUGGCUGUGGCUCGACUGCC | 0.04
GUCAGAGCUCAACACAACUUGGCAAAGUGGCUGUAGCUAGACUGCU | 0.01
GUCAGAGCUCAACACAACGUGGCAAAGUGGCUUUGGCUAGAAUGAC | 0
GUCAGAGCUCAACACACCGUGGCAAAGUCGCUGUGGCUAGACUGCC | 0.03
GUCAGAGCUCAACACACCGUGGCAAAGUGGCUUUGGCAUGACUGCC | 0.03
GUCAGAGCUCAACACACCGUGGCAAAGUGGCUGUGGCUAAACUGCC | 0.01
GUCAGAGCUCAACACACCGCGGCAAGGUGGCUGUGUCUAGACUGCC | 0.03
GUCAGAGCUCAACACAUCGUGGCGAAGUGGCUGUGGCUAGACUGCC | 0.01
GUCAGAGCUCAACACAUUGUCGAAGAGUGGCUGUGGGUAGACUGCC | 0.05
GUCAGAGCUCAACACAUCGUGGCAAAGUGGUUGUGGCUAGACUGCC | 0.04
GUCAGAGCUCAACACAUCGUGGCAAAGUGGUUGUUGCUAGACUGCC | 0.08
GUCAGAGCUCAACACAGCAUGGCGAAGUGGCUGUGGCUAGACUUCC | 0.02
GUCAGAGCUCAACACAGCAUGGCAAAGUGGCUGUGGCCAGACUGCC | 0.27
GUCAGAGCUCAACACAGCCUGGAAUAGUGGUUAUGGCUAGUCUGCC | 0.06
GUCAGAGCUCAACACAGCCUGGCAAAGUGGCUGUGGCUAGAAUGCC | 0.01
GUCAGAGCUCAACACAGCCUAGCAAAGUGGCUGUGGCUAGACUGCC | 0.08
GUCAGAGCUCAACACAGCCUGUUAAAGUGGUUGUGGCUAGACUGCC | 0.22
GUCAGAGCUCAACACAGCCUGGCAAAGUGGCUCUGGCUAGACUGCC | 0.01
GUCAGAGCUCAACACAGCCUGGCAAAGUGGCUGUGGCAAGAUUGCC | 0.02
GUCAGAGCUCAACACAGCUUGGCGAGCUGGCUGUGGCUAGAGUGCC | 0.03
GUCAGAGCUCAACACAGCUUGGCAAACUGGCUGUGGCUACACUGCC | 0.01

Variant | self-cleavage
GUCAGAGCUCAACACAGCUUGGCAAAGUAUCUGUGGCGAGACUGUC | 0
GUCAGAGCUCAACACAGCGUAGCAGAGUGUCUGUGGCUAGACUGCA | 0.07
GUCAGAGCUCAACACAGCGUAGCAAAGUGGAUGUGGCUAGACUGCC | 0.01
GUCAGAGCUCAACACAGCGUAGCAAAGUGGAUGUGGCCAGACUGAC | 0.03
GUCAGAGCUCAACACAGCGUAGCAAAGUGGCUGUGGCUAGACUGCA | 0.04
GUCAGAGCUCAACACAGCGUAGCAAAGUGUCUGUGGCAAGACUGCC | 0.16
GUCAGAGCUCAACACAGCGUAGCAAAGUGGCUUUGGCUAGACUGCC | 0.07
GUCAGAGCUCAACACAGCGUAGCAAAGUGGCUGUGGCAAGACUGCC | 0.06
GUCAGAGCUCAACACAGCGUUGCAUAGUGGCUGUGGCUAGCGUGCC | 0.01
GUCAGAGCUCAACACAGCGUUGCAAAGUGGCUGUGGUUAGACUGCC | 0.03
GUCAGAGCUCAACACAGCGUUACAAAGUGGCUGUGGCUAGACUGCC | 0.11
GUCAGAGCUCAACACAGCGUUGCAAAGUGGCUGUCGCUAGACUGCC | 1.01
GUCAGAGCUCAACACAGCGUUGCAAAGUGGCUGGGGCUAGACUGCC | 0.02
GUCAGAGCUCAACACAGCGUGACAAAGUGGCUGUGGCUUGACUGGC | 0.09
GUCAGAGCUCAACACAGCGUGACAAAGUGGUUGUGGCUAGACUGCC | 0.02
GUCAGAGCUCAACACAGCGUGACAAAGUGGCUAUGGCUAGACUGCC | 0.02
GUCAGAGCUCAACACAGCGUGACAAAGUGGCUUUGGCUAGACUGCC | 0.04
GUCAGAGCUCAACACAGCGUGCCCAAGUGGAUGUGGGUAGACUGCC | 0.16
GUCAGAGCUCAACACAGCGUGCCAAAGUGGCUGUGGCUAGCCUGCC | 0.05
GUCAGAGCUCAACACAGCGUGCCAAAGUGCCUGUGGCUAGACUUCC | 0.04
GUCAGAGCUCAACACAGCGUGCCAAAGUGGCUGUGUCUAGACUGCC | 0.01
GUCAGAGCUCAACACAGCGUGUAAAAGUGGCUGUGGCUAGACUGCC | 0.21
GUCAGAGCUCAACACAGCGUGUGAAAUUGGCUGUGGCUAGACUGCC | 0.29

Variant | self-cleavage
GUCAGAGCUCAACACAGCGUGUCAAAGUGGCUGUGGCUAGAAUGCC | 0.03
GUCAGAGCUCAACACAGCGUGUCAAAGUGGCAGUGGCUAGACUGCC | 0.04
GUCAGAGCUCAACACAGCGUGGCAAAAUGGCUGUGGCUAGACUGAC | 0.15
GUCAGAGCUCAACACAGCGUGGCAAAAUAGCUGUGGCUAGACUGCC | 0.07
GUCAGAGCUCAACACAGCGUGGCAAAAAGGCUGUGGCUAGAUUGCC | 0.02
GUCAGAGCUCAACACAGCGUGGCAAACUAGCUAUGGCUAGACUGCC | 0.02
GUCAGAGCUCAACACAGCGUGGCAAACUGGCUAUAGCUAGACUGCC | 0
GUCAGAGCUCAACACAGCGUGGCAAACCGGCUGUGGCUAGACUGCC | 0
GUCAGAGCUCAACACAGCGUGGCAAACUGGCUGUGGCUAGACCGCC | 0.01
GUCAGAGCUCAACACAGCGUGGCAAAUUGGCUGAGGGUACACUGCC | 0.03
GUCAGAGCUCAACACAGCGUGGCAAAUUGGCUGAGGCUAGACUGAC | 0.06
GUCAGAGCUCAACACAGCGUGGCAAAUUGGCUGUGGCCAGACUGCC | 0.03
GUCAGAGCUCAACACAGCGUGGCAAAGUAGCUGUGGCUAGAAUGCC | 0.07
GUCAGAGCUCAACACAGCGUGGCAAAGUGACUGUGGCUAGACUGCA | 0.04
GUCAGAGCUCAACACAGCGUGGCAAAGUGACUGUGUGUAGACUGCC | 0.02
GUCAGAGCUCAACACAGCGUGGCAAAGUGACUGUGGCUAGACGGCA | 0.01
GUCAGAGCUCAACACAGCGUGGCAAAGUGCCUGUGGCUAAACUGCC | 0
GUCAGAGCUCAACACAGCGUGGCAAAGUGCCCGUGGCUAGACUGCG | 0.04
GUCAGAGCUCAACACAGCGUGGCAAAGUGCCCGAGGCUAGACUGCC | 0.02
GUCAGAGCUCAACACAGCGUGGCAAAGUGUGUGUGGCUAGCCUGCC | 0.02
GUCAGAGCUCAACACAGCGUGGCAAAGUGUCUGUGGAUAGACUUCC | 0.02
GUCAGAGCUCAACACAGCGUGGCAAAGUGUCUGUGACUAGACUGCC | 0.03
GUCAGAGCUCAACACAGCGUGGCAAAGUGGCUAUGGCUAGACUGUC | 0.03

Variant | self-cleavage
GUCAGAGCUCAACACAGCGUGGCAAAGUGGCUUUGGCUAGACUGUC | 0.02
GUCAGAGCUCAACACAGCGUGGCAAAGUGGCUUUGGCAAGACUGCC | 0.02
GUCAGAGCUCAACACAGCGUGGCAAAGUGGCUGUAGCUAGACUGCA | 0.01
GUCAGAGCUCAACACAGCGUGGCAAAGUGGCUGUCGCUAGACUCCC | 0.03
GUCAGAGCUCAACACAGCGUGGCAAAGUGGCUGUCGCUAGACGGAC | 0.01
GUCAGAGCUCAACACAGCGUGGCAAAGUGGCUGUGACUGGACUGCC | 0.15
GUCAGAGCUCAACACAGCGUGGCAAAGUGGCUGUGCCUAUAAUGCC | 0.04
GUCAGAGCUCAACACAGCGUGGCAAAGUGGCUGUGUCUAGACUGCU | 0.11
GUCAGAGCUCAACACAGCGUGGCAAAGUGGCUGUGGCUAUACUGCU | 0.03
GUCAGAGCACAACUCAGCGUGGCAACGUGGCUGUGGCUAGACGGCC | 0
GUCAGAGCACAACACAGCGUGGCAAUGUGGCUGUGGCUAGACUGCC | 0.13
GUCAGAGCACAAUACAGCGGGGCAAAGUGGCUGAGGCUAGACUGCC | 0.01
GUCAGAGCACAACAUACCGUGGCAAAGUGGCUGUGGCUAGACUGCC | 0.05
GUCAGAGCACAACACAGCGUGGCAAAGUGGUUGUGGCUAGACUGCC | 0.09
GUCAGAGCACAACACAGCCUGGCAAAGUGGCUGUGGCUAGACGGCC | 0
GUCAGAGCACAACACAGCGUGGCAAAGUGACUGUGGCUAGACUGCU | 0.1
GUCAGAGCACAACACAGCGUGGCAAAGUGUCUGUGGCUAGACUGCC | 0.09
GUCAGAGCACAACACAGCGUGGCAAAGUGGCUGUCGCUAGACUGUC | 0.01
GUCAGAGCACAACACAGCGUGGCAAAGUGGCUGUGGCUAUACUGCC | 0.09
GUCAGAGCCCAACUAAACGUGGCAAAGUGGCUGUGGCUAGACUGUC | 0.01
GUCAGAGCCCAACACAGCGUGGCCAAGUGGCUGUGGCUAGACUGCC | 0.02
GUCAGAGCCCAACACAGCGUGGCAAAUUGGCUGCGGCUCGACUGCC | 0.02
GUCAGAGCCCAACACAGCGUGGCAAAGUGGCUGUUCCUAAACUGCC | 0

Variant | self-cleavage
GUCAGAGCCCAACACAGCGUGGCAAAGUGGCUGUGACUAGUCUGCC | 0.01
GUCAGAGCGCCACACAGCAUGGCAAAAUGGCUGUCGCUAGACUGCC | 0
GUCAGAGCGGAACACAGCGUGGCAAAGUGGCUGUCGCUAGACUGCC | 0.01
GUCAGAGCGCAAAAGAGCGUGGCAAAGUGGCUGAGGCUAGACUGGC | 0.04
GUCAGAGCGCAACACAGGGUGGCAAAUUGGCUUUGGCUAGACUGCC | 0.01
GUCAGAGCGCAACACAGCGUGCCAAAGUGGCUGUGGCUAGACUGAC | 0.03
GUCAGAGCGCAACACAGCGUGGCAAACUGGCUGUUGCUAGACUUCC | 0.02
GUCAGAGCGCAACACAGCGUGGCAAAGUUGCUGUGGCUACACUGCC | 0.03
GUCAGAGCGCAACACAGCGUGGCAAAGUGGCUGUCGCUAGGCUAAC | 0.02
GUCAGAGCUCAACACAGCGAGGCGAAGUGGCUGUGGCUAGAUUGUC | 0.01
GUCAGAGCUCAACACAGCGAGGCAAAGUUGCUGUGGCUAAACUGCC | 0.04
GUCAGAGCUCAACACAGCGCGGCAUAGUGGCUGUGGCUAGACUGCC | 0.04
GUCAGAGCUCAACACAGCGCGGCAAAGUGGGUGUGGCUAGACUGCA | 0.01
GUCAGAGCUCAACACAGCGCGGCAAAGUGGCUGUGGGUAGAAUGCC | 0.01
GUCAGAGCUCAACACAGCGCGUCACAGUGACUGUGGAUAGACUGCC | 0.02
GUCAGAGCUCAACACAGCGCGGCAAAGUGGCUGUGACUAGGCUGCG | 0.01
GUCAGAGCUCAACACAGCGGAGCAAAGUGGCUGUGGCUAGACUGCC | 0.1
GUCAGAGCUCAACACAGCGGGGCAAAGUGGCUUUAGCUAAACUGCC | 0.01
GUCAGAGCUCAACACAGCGGGGCAAAGUGGCCGUGGCUAGACUCCC | 0.02
GUCAGAGCUCAACACAGCGUGGCAAAGAGGCGGUGGCUAGACAGCC | 0.03
